# According to publication PMC4336329 (PLoS ONE, 2015):
# About 2,200 (0.71%) of roughly 310,000 compounds showed an effect of 50% or more. Effects have a minus sign here. This is one part of the list.
# Target: human ether-à-go-go-related gene (hERG) potassium channel (human, UniProt Q12809)
# Assay: primary screen, population patch clamp on CHO cells stably expressing hERG
# Chain of human ether-à-go-go-related gene (hERG) potassium channel (Q12809 whole entry, looked up): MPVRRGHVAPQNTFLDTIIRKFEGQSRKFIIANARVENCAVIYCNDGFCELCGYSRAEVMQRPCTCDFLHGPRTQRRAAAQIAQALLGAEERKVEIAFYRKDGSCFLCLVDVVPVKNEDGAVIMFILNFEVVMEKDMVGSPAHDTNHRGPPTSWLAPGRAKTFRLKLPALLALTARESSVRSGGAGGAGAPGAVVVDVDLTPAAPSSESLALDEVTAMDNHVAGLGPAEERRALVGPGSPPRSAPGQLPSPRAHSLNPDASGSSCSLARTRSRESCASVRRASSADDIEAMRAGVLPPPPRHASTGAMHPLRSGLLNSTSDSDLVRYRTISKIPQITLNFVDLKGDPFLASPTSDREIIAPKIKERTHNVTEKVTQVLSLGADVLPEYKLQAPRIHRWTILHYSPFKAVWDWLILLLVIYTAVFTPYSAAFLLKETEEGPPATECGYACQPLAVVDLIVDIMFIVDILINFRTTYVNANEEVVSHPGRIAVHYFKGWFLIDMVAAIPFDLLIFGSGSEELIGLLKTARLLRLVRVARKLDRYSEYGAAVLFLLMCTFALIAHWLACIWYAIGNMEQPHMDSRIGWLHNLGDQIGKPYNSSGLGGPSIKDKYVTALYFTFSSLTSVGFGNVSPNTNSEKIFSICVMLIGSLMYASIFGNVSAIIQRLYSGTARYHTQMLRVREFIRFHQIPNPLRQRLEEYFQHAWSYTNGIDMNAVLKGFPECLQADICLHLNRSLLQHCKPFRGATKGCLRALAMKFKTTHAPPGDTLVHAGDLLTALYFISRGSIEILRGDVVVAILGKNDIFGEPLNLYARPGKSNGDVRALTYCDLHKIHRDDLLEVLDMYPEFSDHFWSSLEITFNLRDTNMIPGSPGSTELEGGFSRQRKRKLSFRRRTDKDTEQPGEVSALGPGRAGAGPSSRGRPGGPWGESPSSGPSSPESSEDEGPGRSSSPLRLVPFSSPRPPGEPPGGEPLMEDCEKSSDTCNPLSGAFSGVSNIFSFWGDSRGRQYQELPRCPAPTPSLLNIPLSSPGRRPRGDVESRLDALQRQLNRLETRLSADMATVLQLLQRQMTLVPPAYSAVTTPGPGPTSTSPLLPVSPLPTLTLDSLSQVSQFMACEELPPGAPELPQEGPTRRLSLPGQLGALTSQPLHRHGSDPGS
row,Structure (SMILES),"hERG current change (%, negative = inhibition) at 1uM [%]"
1,CCC(c1nnnn1C(C)(C)C)N1CCN(C2CCCC2)CC1 (stereo not drawn),4.37
2,COc1ccc(C(=O)O/N=C/c2c(C(F)(F)F)nn(C)c2SCc2ccccc2Cl)cc1,-12.9
3,COc1cc(NC(=O)COC(=O)c2ccc(S(=O)(=O)N3CC(C)CC(C)C3)cc2)c(C)cc1[N+](=O)[O-] (stereo not drawn),5.69
4,Cc1ccc(C2=NN(CC(=O)NCc3cccs3)C(=O)CC2)cc1,-3.93
5,O=C(NCc1cccc(Cl)c1)c1ccc2nc[nH]c2c1,17.8
6,CCCCNC(=O)NNC(=O)C1CC1(c1ccccc1)c1ccccc1 (stereo not drawn),15.2
7,Cc1cc(C(F)(F)F)nn1CC(=O)NNC(=S)Nc1ccc(F)cc1,11.5
8,O=[N+]([O-])c1cccc(-c2noc(-c3ccco3)n2)c1,16
9,O=C(OCC(=O)N1c2ccccc2Sc2ccccc21)c1cccnc1,7.62
10,CN(C)C(=O)c1cc(C(=O)Cc2ccccc2)c[nH]1,18.1
11,COc1ccc(NC(=O)CSc2n[nH]c(C(C)C)n2)c([N+](=O)[O-])c1,10.4
12,O=C1CC(c2ccccc2)CC(O)=C1C=NCc1ccc(Cl)cc1 (stereo not drawn),10.4
13,COCCN(Cc1ccc(C)c(Br)c1)C(=O)Cn1cnc(S(=O)(=O)N2CCCC2)c1,4.5
14,CCN(C(=O)c1cc2c(s1)-c1ccccc1S(=O)(=O)C2)c1cc(OC)ccc1OC,3.56
15,CCOc1ccccc1N1CCN(Cc2cc3c(cc2[N+](=O)[O-])OCO3)CC1,4.28
16,O=C(Nc1cccc(-c2nc3ncccc3o2)c1)c1ccco1,-6.26
17,Cc1ccc(S(=O)(=O)N2CCC(N3CCN(C)CC3)CC2)cc1Cl.O=C(O)C(=O)O,7.12
18,O=C(Nc1ccc(S(=O)(=O)N2CCOCC2)cc1)c1ccc(Cl)cc1,2.16
19,COc1ccc(C2=NOC(C(=O)NC(C)(C)C)C2)cc1 (stereo not drawn),-3.31
20,COc1cccc(CC(CC(=O)O)C(=O)Nc2cc(C)ccc2C)c1 (stereo not drawn),8.13
21,CCOC(=O)N1CCN(C(=O)Cn2nc(C)n3nc(-c4ccccc4)cc3c2=O)CC1,10.1
22,Cc1ccc(C)c(OCCC(=O)OCC(=O)NNC(=O)c2ccccc2)c1,12.9

row,Structure (SMILES),"hERG current change (%, negative = inhibition) at 1uM [%]"
1,CC1CCN(S(=O)(=O)c2ccc3c(c2)oc(=O)n3CC(=O)N2CCc3ccccc3C2)CC1,7.51
2,Cc1ccc2cccc(NC(=O)C(F)(F)F)c2n1,12.5
3,CCCCOc1ccc(-c2cc(C(F)(F)F)c(C#N)c(SCC(=O)O)n2)cc1,6.97
4,O=C(CCc1ccccc1)NNC(=O)Nc1ccc(Cl)cc1,16.4
5,CCOC(=O)c1nnc(-c2ccccc2)nc1NCc1ccc(Cl)cc1,15.9
6,Cc1ccccc1NS(=O)(=O)c1ccc2c(c1)oc(=O)n2C,7.94
7,CCOc1cc(OCC)cc(C(=O)Nc2cccnc2)c1,-1.3
8,COc1cc(-n2c(=O)c3ccccc3n(CC(=O)OCc3ccccc3)c2=O)cc(OC)c1OC,16
9,CCCOc1ccc(/C(CC)=N/NC(=O)C2(C)CC2(Br)Br)cc1 (stereo not drawn),-4.78
10,CCCC(O)(CCC)C(=O)NN(C(=O)OC)c1ccccc1,19.2
11,Cc1ccc(OCC(=O)NNC(=O)c2cccnc2)cc1C,5.52
12,COC(=O)c1cc(NS(=O)(=O)c2ccc(Cl)c(N3C(=O)c4ccc(C(=O)O)cc4C3=O)c2)cc(C(=O)OC)c1,14.7
13,CCC[C@@H]1CCCO[C@@](C(=O)NCc2ccc(S(C)(=O)=O)cc2)(C(F)(F)F)C1,12.4
14,CC(C)CCOc1cccc(OCC(=O)N(C)C2CCS(=O)(=O)C2)c1 (stereo not drawn),13.7
15,Cc1ccccc1OCC(=O)OCC(=O)Nc1ncc(Cl)c(C)c1Cl,6.19
16,CSc1nncc(-c2ccc(F)c(F)c2)n1,17
17,Fc1ccccc1N1CCN(C2CCN(Cc3c[nH]c4ccccc34)CC2)CC1,-13.9
18,CC1=CC(C)(C)n2c(O)c(N=N)c3c(C)c(C)cc1c32,4.68
19,CN(CC(=O)Nc1cccc(F)c1)C(=O)c1cn(-c2ccccc2)nc1-c1ccc(Cl)cc1,5.04
20,O=C1C2C3C=CC(C3)C2C(=O)N1c1cccc(N2C(=O)C3C4C=CC(C4)C3C2=O)n1 (stereo not drawn),-0.282
21,Cc1cc(C)c(S(=O)(=O)Nc2ccncc2)cc1C,13.7
22,CCOc1ccc(-c2ccc(SCC(=O)NCC3CCCO3)nn2)cc1 (stereo not drawn),9.18

row,Structure (SMILES),"hERG current change (%, negative = inhibition) at 1uM [%]"
1,COc1cc(OC)cc(C(=O)Nn2cc(C(=O)Nc3c(F)cccc3F)c3ccccc3c2=O)c1,3.74
2,COc1cc2c(cc1OC)CN(C(=O)c1ccccc1C(=O)O)CC2,13.5
3,O=C(NCC1CCCO1)c1onc(CSc2ccccc2)c1C(=O)O (stereo not drawn),15.5
4,CCC(=O)Nc1cc(Cl)ccc1C(=O)O,-0.571
5,C=CCC(C(=O)OC)(C(=O)OC)c1ccc([N+](=O)[O-])cc1[N+](=O)[O-],6.08
6,Cn1cc(C(=O)NCc2ccc(F)cc2)cn1,3.95
7,Cc1nc(NC(=O)C23CC4CC(CC(C4)C2)C3)sc1Cc1ccc2c(c1)OCO2,13.4
8,COC(c1ccccc1)c1nnc(CCC(=O)N(C)Cc2cccc(-n3cccn3)c2)o1 (stereo not drawn),4.63
9,Cc1ccccc1NC(=O)Cn1nc(C)n2cccc2c1=O,9.18
10,CCOc1ccc(NC(=O)c2sc3nc(N4CCOCC4)c4c(c3c2N)CCCC4)cc1,16.3
11,Cc1ccc(Nc2nnc(SC3CCOC3=O)s2)c(C)c1 (stereo not drawn),-2.44
12,O=c1[nH]c(SCc2ccccc2)nc2c1cnn2-c1ccc(F)cc1,4.7
13,CCC(C)c1ccc(NC(=O)NCCN2CCCCC2)cc1 (stereo not drawn),-9.2
14,Cc1ccc(Cn2cnc3sc4c(c3c2=O)CCC4)c(C)c1,1.95
15,O=C(CSc1nc2ccccc2c(=O)n1-c1ccccc1)N1CCCc2ccccc21,5.45
16,O=c1[nH]c(=S)n(C2CC2)c(O)c1C=NCc1ccc(F)cc1,17.4
17,COc1ccc(Cl)cc1N(CC(=O)Nc1ccc2c(c1)OCCO2)S(C)(=O)=O,11.4
18,CCc1ccc(OCC(=O)N(CC)CC)cc1,5.85
19,O=C(COn1nnc2ccc(C(F)(F)F)cc21)Nc1c(Cl)cccc1Cl,4.44
20,Cc1nc2ncnn2c(C)c1Cc1cccc(F)c1,-2.87
21,COCCCNC(=S)NC1CC2CCCC(C1)N2Cc1cccs1 (stereo not drawn),1.43
22,COc1ccc(CCC(C)N2CCC(Oc3ccc(C(=O)N4CCCC4)cc3)CC2)cc1 (stereo not drawn),-28.5

row,Structure (SMILES),"hERG current change (%, negative = inhibition) at 1uM [%]"
1,O=C(Cn1cnc2ccccc2c1=O)NNC(=O)c1cccc([N+](=O)[O-])c1,10.8
2,Cc1cnc(NC(=O)Cc2ccc(Br)cc2)s1,15.3
3,CC(C)c1cc(C(=O)NCc2ccco2)no1,11
4,CCCCC/C=N/NC(=O)c1[nH]c2ccc([N+](=O)[O-])cc2c1C,7.07
5,C/C=C(/C)C(=O)Nc1cccc(C2=NOC3(C2)C[C@H](C(N)=O)N(C(=O)c2ccccc2)C3)c1 (stereo partly drawn),11.3
6,O=C1CCCC2=C1C(c1ccc(O)c(O)c1)c1c(ccc3ncccc13)N2 (stereo not drawn),10.7
7,COC(=O)c1ccccc1NC(=O)c1ccc(COc2ccc3c(c2)CCC3)cc1,9.4
8,COc1ccc(C(C)(C)C)cc1NC(=O)CN1C(=O)C(=O)N(Cc2ccco2)C1=O,9.33
9,COc1ccc(-n2c(C)c(C)c3c(N)ncnc32)cc1,13.3
10,Nc1nnc(SCC(=O)N2CCc3ccccc3C2)s1,10.8
11,CC(C)c1cc(C(=O)N2CCCC(CCC(=O)N3CCN(c4ccccn4)CC3)C2)no1 (stereo not drawn),-6.96
12,CC(Sc1nc2ccccc2c(=O)[nH]1)C(=O)O (stereo not drawn),12.6
13,Cc1onc(-c2ccccc2)c1-c1n[nH]c(=S)n1-c1ccccc1,16.4
14,COc1ccc(N2CCN(C(CNC(C)=O)c3ccco3)CC2)cc1 (stereo not drawn),10.2
15,Oc1ccc(Br)cc1/C=N/n1c(COc2ccccc2)n[nH]c1=S,7.57
16,O=C(Nc1ccccc1)/C(=C/c1ccc([N+](=O)[O-])cc1)NC(=O)c1ccco1,5.78
17,O=C(COc1ccc([N+](=O)[O-])cc1)Nc1ccc2c(c1)nc1n2CCOC1,-8.12
18,CN(C)CCCN1C(=O)CSC1c1ccccc1.Cl (stereo not drawn),5.79
19,NC(=O)C1CCN(Cc2ccc(OCc3ccccc3)cc2)CC1.O=C(O)C(=O)O,12.4
20,Cc1nc2cc(-c3ccsc3-n3c(C)ccc3C)[nH]n2c(=O)c1Cl,8.31
21,COC(=O)c1ccc(NC(=S)Nc2cccc(C)n2)cc1,3.31
